Some of the results follow.
B1: chr13:113752066:113752067:+_ENSG00000126217_ENST00000375604|hu_hu|motif|central (ssRNA)
RNA: GGGAGUUCUACAGUCCGACGAUCGGUGCGGCCUCCGAGGAGGCUGCAGUGCAGUGAGGCAGGGGCAGGGCUCUCUGAGCGGUGGUCGGCAGCACUGGUCCACGCCACACCCUGCAGAAACUGCAUCUUUGUAUUUUCUUUAAACAACAGAGGAUUGAGCAUCA
B2: chrX:41000244:41000245:+_ENSG00000124486_ENST00000378308|hu_hu|FALSE|FALSE (ssRNA)
RNA: GGGAGUUCUACAGUCCGACGAUCUGCUUCUUUUUUCAGUUCUUCAUCAGUUAAGUUUUCUAAAAACUGUGGAACCAUUUCUAUUAUUGGAAGAAAGUACUUUUUCACUGUAUGAAGAGUGAGAAACUCAUAGCAUUGCCCAAACAACAGAGGAUUGAGCAUCA
B3: chr16:94690093:94690094:+_ENSMUSG00000040785_ENSMUST00000117648|mus_hu|mus_mus_mus_hu_True|88_108 (ssRNA)
RNA: GGGAGUUCUACAGUCCGACGAUCGGGGACUCCUGUGGGACACACAGAUCUUCCCAGAGGGGGAAAAAGUCUUAGUCGAUACUAAUUAAAAAGUGUUAAUGAUUUUUGAAAAUCAGAUUACAUCUAUAAAAGAUGAAAAGCAAACAACAGAGGAUUGAGCAUCA
B4: chr2:42509997:42509998:+_ENSG00000143924_ENST00000318522|hu_mus|hu_hu_hu_mus_True|38_88 (ssRNA)
RNA: GGGAGUUCUACAGUCCGACGAUCUCGCUGAGUCCUCUCCUCAUAAUUAAAUAGUACUACCACUGAGGCGAUAAAAUAAACUAUCUCCCCUGUGGGAAGAAGGUAAACAUUCGCUCUACAGUCCUUUCCUCGAUAACCGUAUACCAACAGAGGAUUGAGCAUCA
B5: chr19:8913615:8913616:-_ENSMUSG00000071658_ENSMUST00000096259|mus_hu|mus_mus_mus_hu_False|58_98 (ssRNA)
RNA: GGGAGUUCUACAGUCCGACGAUCAGGGUACCAAAACACCCUGCCUCAAAUGGGUGCCCCACCCAGUAGGGAGUUGCAGCUAAAAAUAUCUGAUGCAGAAGCAGUGACUAUACGAAAGGAGGCCCCUGGGGAGGGCCAGGCCAGCAACAGAGGAUUGAGCAUCA
B6: chr19:8871807:8871808:-_ENSMUSG00000071662_ENSMUST00000096261|mus_mus|FALSE|FALSE (ssRNA)
RNA: GGGAGUUCUACAGUCCGACGAUCCACCACUUCACCUUUAAAGGGCCGGAAAACAAUAGCUUUGUAUUUCACUGGAUAAAGAACAAAACCUCGGCCUGGCUGGAUCACACCAGCACCAAUAUUGUCGAUGGUGGUGACAGCAAUCAACAGAGGAUUGAGCAUCA
B7: chr19:8913615:8913616:-_ENSMUSG00000071658_ENSMUST00000096259|mus_hu|mus_mus_mus_hu_False|28_38 (ssRNA)
RNA: GGGAGUUCUACAGUCCGACGAUCAGGGUACCAAAACCUUCUGCCUGAAAUGGGUGCCCCACCCAGUAGGGAGUUGCAGCUGAAAGUAUCUGAUGCACUGACAGUUAAUGCAGAGAAGGAGGCCCCUGGGGAGGGCCAGGCCAGCAACAGAGGAUUGAGCAUCA
B8: 83021423_83021639_1028_CDS_ENSMUSG00000034560_ENSMUST00000038388|mouse|control|control (ssRNA)
RNA: GGGAGUUCUACAGUCCGACGAUCAAAAAUCUGAAAGUGCAGUACAAAGAGCCCACAAAUUCCAACAUACUUGUCUCUCUGGUCAAUUUCAGAAGGCUCACCAAGCUUGGCUUCCACAUUUGCAAAAAUUGAGCGAAUGCUAUGCAACAGAGGAUUGAGCAUCA
B9: chr6:114281168:114281169:-_ENSG00000196591_ENST00000368632|hu_hu|hu_hu_hu_mus_True|78_108 (ssRNA)
RNA: GGGAGUUCUACAGUCCGACGAUCUUCCAUUUUUCUGUAUAAACCAUAAUUUAGCAGCAAGUUAUGGGUCAUCCGGAUUCUAUGAGGCUUCAUGGGAUGACCCUGGCCAUAAUAAUAAUUGCCAAUAUCACCAUCAUAGUAGUACAACAGAGGAUUGAGCAUCA
B10: chr18:24770415:24770416:+_ENSMUSG00000024271_ENSMUST00000025120|mus_hu|FALSE|FALSE (ssRNA)
RNA: GGGAGUUCUACAGUCCGACGAUCAUAAACAGGUCCUUCAUGGCCUUGAAGAUGCACUGCUUUUAAAAGCUGAUUAUCCUCUAUUUCCCAGUGAAUCACUUGAUUAUCAGAUCCUCCAGAAACUAAUUCAGUAGAAGGGGAGCCCAACAGAGGAUUGAGCAUCA
B11: chrX:98862621:98862622:+_ENSMUSG00000034160_ENSMUST00000044475|mus_hu|mus_mus_mus_hu_False|8_78 (ssRNA)
RNA: GGGAGUUCUACAGUCCGACGAUCCUGCAUCUCCUUUAGAGUGUUUCCCAUAUUAGAAUAAGCAUCAGCAAAGGUAGGACUGAUUCGAAUAGCCUCCUUAUAAUGCAUCAGAGCUUCCUGCAGUUUUCCCUGCUGUUGCAGUACCAACAGAGGAUUGAGCAUCA
B12: 4745457_4745577_5373_CDS_ENSMUSG00000067889_ENSMUST00000008991|mouse|control|control (ssRNA)
RNA: GGGAGUUCUACAGUCCGACGAUCUUCAUGGUCAAUCAUAUCUUGACUGCUGGCUGCUAGUUGUUUGAUGGUCUGGGCAUAGUCAGCAAGGGCUUGUUCCAAUACCUGAUGCUUCUUCACUUCUGCCUGGGCGCUCAGCUCAUCCAACAGAGGAUUGAGCAUCA
B13: chr5:128440902:128440903:+_ENSG00000066583_ENST00000173527|hu_mus|motif|central (ssRNA)
RNA: GGGAGUUCUACAGUCCGACGAUCUUGAACGGUGCUGCCAAGUCCUUUGGGGUAUUGUUCCGUUAUGAUAACUGGAAUCCCGGAGAUCCGAGCUCCUUGCAACAGUCUCUGUCCCACACUAAUGAUGUCCCCAAAGUAUUUGAUCAACAGAGGAUUGAGCAUCA
B14: chr12:58340223:58340224:+_ENSMUSG00000079104_ENSMUST00000139049|mus_mus|FALSE|FALSE (ssRNA)
RNA: GGGAGUUCUACAGUCCGACGAUCCUGUAUUUUGGAGCAGUGUUUCAUCUUGUCUUCCUGAGGUAUGGUAUUGGUAACUACUACUGCUUCAAAGCAUGCAUUGUUGAUGCGAGAAAUGGCAGGGCCAGAGAAGAUUCCAUGCGUCAACAGAGGAUUGAGCAUCA
B15: chr7:4964383:4964384:-_ENSMUSG00000061374_ENSMUST00000077385|mus_mus|FALSE|FALSE (ssRNA)
RNA: GGGAGUUCUACAGUCCGACGAUCGCAUCGGUAGGGUCGUUCACCAGUGUGUGAGCGCAGGUGGUUAGCCAAGUUGAAGCUAUGCUUGAAGCCCUUACCGCAUCGAGGACAUGCGUGGGGCUUGAGAGCCGUGUGUCGAGCAAACAACAGAGGAUUGAGCAUCA
B16: 11280689_11280809_2316_3pUTR_ENSG00000154319_ENST00000284486|human|control|control (ssRNA)
RNA: GGGAGUUCUACAGUCCGACGAUCUUCUACGGGUCUGGCCGAGGGACCCCUGCCAUGCCGUAUGACCCCAGACUGACCUCCCUAACCUGCUGGGGUCUUAACUUGCUGAUCCUCAAGCCUGUUGGGAGGGAGAAACUCUUAAAACAACAGAGGAUUGAGCAUCA
B17: chr18:90710673:90710674:+_ENSMUSG00000024614_ENSMUST00000025515|mus_mus|FALSE|FALSE (ssRNA)
RNA: GGGAGUUCUACAGUCCGACGAUCACCUAAUAAAAAUUCUGAAAUUAGCUAAAAUGAAGGCAUCAAAAUUAACAAAUGAUCUAUAGUAAACAUUAUCACAAAAUACCCACUCUUAGACACGACUGCAUUCUGAUGAAAGAUGCGCAACAGAGGAUUGAGCAUCA
B18: chr10:7844279:7844280:+_ENSG00000165629_ENST00000356708|hu_mus|FALSE|FALSE (ssRNA)
RNA: GGGAGUUCUACAGUCCGACGAUCAUCAGAAGCGUUCUUGCUGGCGUUGUCCAUGGCGGUCAUCCUGGCACUCUGCUCACUGGUGGUGGACUCCUUCAGGGAGUAGUAGAUGAGGUUGGCCAGAUUGUACUCCUGGUAAUUCUGCAACAGAGGAUUGAGCAUCA
B19: chr18:9954606:9954607:+_ENSG00000101558_ENST00000400000|hu_mus|motif|central (ssRNA)
RNA: GGGAGUUCUACAGUCCGACGAUCCCAUUUCCCCCACAGAAAACCUCUUGGCAUUUCCUGAAUGAGUGGGAUUAGCAAUCGGAAUAAAUCAUAUUUCAAGAGGUAACAGCAACAGAUAAAAUUUAAAGGAAUUAUUAAAAUAACCAACAGAGGAUUGAGCAUCA
B20: chr6:38652254:38652255:-_ENSG00000124767_ENST00000373365|hu_hu|hu_hu_hu_mus_False|1_88 (ssRNA)
RNA: GGGAGUUCUACAGUCCGACGAUCCGAGAACUUCAUAGCAGGGAAGUCACAUUUUUGCAGGAGGGUCAGUCCAAGAACCCUCGUAUAAAAAUCCAGGGACUUCUUAGGAUCCUUAAUUCUUAGCAUCGUUUGCUGCAAUAGAAACAACAGAGGAUUGAGCAUCA
B21: chr6:50807893:50807894:+_ENSG00000008196_ENST00000393655|hu_hu|motif|central (ssRNA)
RNA: GGGAGUUCUACAGUCCGACGAUCCUCAGAGACGGCUUUGGCGGGAAACUCCGUUUCGCAAAUGUACCCAAAAUCCCGGGCGGAGUGAACAGCUUCUCCUUCCACCAGGGAGGUGAGUAACGUGACAUUUGCUGCUUUGCGCCUCAACAGAGGAUUGAGCAUCA
B22: chr10:112654219:112654220:+_ENSG00000150593_ENST00000280154|hu_mus|FALSE|FALSE (ssRNA)
RNA: GGGAGUUCUACAGUCCGACGAUCCCACAAGGAUUUUAAUAAAUCUAAGAUCAUCUUGAAUGCACUUUCUCCAGUUGACUCUAAAACCAUUACAAUGGCUUCAUAUACAAGCUCGUGGUGAAAAUGAGGUACUUCCAGUUCCUUCAACAGAGGAUUGAGCAUCA

target: T1, UNK ZnF1-3 (human, UniProt Q9C0B0 31-174); assay: nsRBNS (natural sequence RNA bind-n-seq); RBNS binding buffer (assumed for nsRBNS): 25 mM Tris pH 7.5, 150 mM KCl, 3 mM MgCl2, 0.01% Triton X-100, 500 ug/ml BSA, 20 U/ml SUPERase-In, 4 C; UNK is unkempt and MSI1 is Musashi-1; names of the RNAs are library labels; protein concentration not given here; high values mean tight binding
T1 sequence: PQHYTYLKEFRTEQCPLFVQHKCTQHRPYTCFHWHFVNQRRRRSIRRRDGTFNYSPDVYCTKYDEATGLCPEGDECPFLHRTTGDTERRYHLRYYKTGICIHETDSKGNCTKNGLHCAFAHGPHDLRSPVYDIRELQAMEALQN

Row | Binder | binding signal
1 | B1 | 0.819 enrichment R
2 | B2 | 0.696 enrichment R
3 | B3 | 1.08 enrichment R
4 | B4 | 1.59 enrichment R
5 | B5 | 1.92 enrichment R
6 | B6 | 1.27 enrichment R
7 | B7 | 1.7 enrichment R
8 | B8 | 1.7 enrichment R
9 | B9 | 0.794 enrichment R
10 | B10 | 0.865 enrichment R
11 | B11 | 1.15 enrichment R
12 | B12 | 0.599 enrichment R
13 | B13 | 0.788 enrichment R
14 | B14 | 0.892 enrichment R
15 | B15 | 1.27 enrichment R
16 | B16 | 0.89 enrichment R
17 | B17 | 1.94 enrichment R
18 | B18 | 0.618 enrichment R
19 | B19 | 2.28 enrichment R
20 | B20 | 0.9 enrichment R
21 | B21 | 0.704 enrichment R
22 | B22 | 0.839 enrichment R

Reference: publication PMC12136788
